{"source": "the supplement of paper PMC3334620", "note": "The full ranking holds about 33,000 sequences; the median of “E-score (-0.5 to 0.5)” is about -0.016, and the highest 2% start at about 0.32. Some of the results follow."}
{"biological_target": "T1, Stp1 (UniProt B3LFK1)", "T1 sequence": "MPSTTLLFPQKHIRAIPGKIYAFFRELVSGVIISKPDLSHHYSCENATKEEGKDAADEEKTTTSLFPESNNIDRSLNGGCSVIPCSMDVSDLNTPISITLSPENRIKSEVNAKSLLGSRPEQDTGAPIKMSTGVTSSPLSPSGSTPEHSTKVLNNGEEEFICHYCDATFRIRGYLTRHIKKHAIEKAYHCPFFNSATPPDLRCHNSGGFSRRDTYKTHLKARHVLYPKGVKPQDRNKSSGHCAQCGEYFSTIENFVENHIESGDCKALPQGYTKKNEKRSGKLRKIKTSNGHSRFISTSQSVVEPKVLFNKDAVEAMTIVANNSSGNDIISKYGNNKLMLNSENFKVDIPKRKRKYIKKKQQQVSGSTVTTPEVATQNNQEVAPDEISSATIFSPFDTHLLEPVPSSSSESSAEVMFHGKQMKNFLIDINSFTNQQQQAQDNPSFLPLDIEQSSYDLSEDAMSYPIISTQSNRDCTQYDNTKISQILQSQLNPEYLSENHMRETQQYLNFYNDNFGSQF", "assay": "PBM E-score (8-mer binding enrichment) (E-score (-0.5 to 0.5)); higher = stronger / more preferred TF binding; most listed sequences are background and not binding sites", "details": "protein concentration: 200 nM; construct: GST-full length", "method_in_brief": "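Universal all-10-mer Agilent arrays, fresh or stripped once, were converted to double-stranded form by primer extension. GST-tagged yeast transcription factors from PURExpress in vitro transcription/translation, full-length or DNA-binding domain only, were applied at about 100-200 nM and detected with fluorescent anti-GST. After masliner normalisation, the Universal PBM Analysis Suite scored each ungapped eight-base word together with its reverse complement by E-score.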"}
{"sequence": "AAAGCGAC", "PBM E-score": -0.135}
{"sequence": "ATAAAAAG", "PBM E-score": 0.262}
{"sequence": "GGGAATAA", "PBM E-score": 0.135}
{"sequence": "ACTGGGCC", "PBM E-score": -0.13}
{"sequence": "AACGGTGC", "PBM E-score": 0.183}
{"sequence": "CGAACCTC", "PBM E-score": -0.0892}
{"sequence": "AAGTGGAA", "PBM E-score": -0.0493}
{"sequence": "CAGCCTTA", "PBM E-score": -0.21}
{"sequence": "CCCAAACC", "PBM E-score": -0.124}
{"sequence": "CAATAATA", "PBM E-score": 0.19}
{"sequence": "ACCGCACC", "PBM E-score": 0.0883}
{"sequence": "AACCATAA", "PBM E-score": 0.0889}
{"sequence": "GGAGTGAA", "PBM E-score": -0.0852}
{"sequence": "GTGTCGGA", "PBM E-score": -0.0814}
{"sequence": "TCATTCAA", "PBM E-score": 0.0509}
{"sequence": "AGGTGTTG", "PBM E-score": -0.0681}
{"sequence": "TAGAAGCA", "PBM E-score": 0.112}
{"sequence": "AGCTGAAG", "PBM E-score": -0.16}
{"sequence": "AGCACCGC", "PBM E-score": -0.123}
{"sequence": "CTAGCAGA", "PBM E-score": 0.0464}
{"sequence": "AATCAAGG", "PBM E-score": 0.0369}
{"sequence": "CCCGGCAC", "PBM E-score": -0.0313}
{"sequence": "CCCAAGTA", "PBM E-score": -0.205}
{"sequence": "GTACGCAA", "PBM E-score": -0.0317}
{"sequence": "CTGAGGGA", "PBM E-score": -0.253}
{"sequence": "GCAGTTTA", "PBM E-score": -0.0702}
{"sequence": "ATTTAAAA", "PBM E-score": 0.224}
{"sequence": "ATTGTGAC", "PBM E-score": -0.0171}
{"sequence": "GTCAAGAA", "PBM E-score": 0.0171}
{"sequence": "CGCACACG", "PBM E-score": 0.0837}
{"sequence": "AGAGTCTA", "PBM E-score": -0.189}
{"sequence": "GGGACCTA", "PBM E-score": -0.16}
{"sequence": "GTCTTCTA", "PBM E-score": -0.00913}
{"sequence": "CGCTTTGC", "PBM E-score": 0.209}
{"sequence": "CACACGCC", "PBM E-score": 0.17}
{"sequence": "AGGCGCAT", "PBM E-score": 0.241}
{"sequence": "AGTCACGG", "PBM E-score": 0.0206}
{"sequence": "CTAATTCC", "PBM E-score": -0.0993}
{"sequence": "CATGGTCA", "PBM E-score": 0.103}
{"sequence": "GCGTAGCC", "PBM E-score": -0.0921}
{"sequence": "CACCTAAA", "PBM E-score": 0.0147}
{"sequence": "AAGCAGTA", "PBM E-score": -0.176}
{"sequence": "ATCGAGAA", "PBM E-score": 0.0847}
{"sequence": "AGGAGGTG", "PBM E-score": -0.174}
{"sequence": "ACAAGCTG", "PBM E-score": 0.0431}
{"sequence": "CGAGATCC", "PBM E-score": -0.109}
{"sequence": "AGAAAGGG", "PBM E-score": 0.0223}
{"sequence": "GGCTAATA", "PBM E-score": 0.0747}
{"sequence": "CAAGCGCG", "PBM E-score": 0.124}
{"sequence": "CTGGCAGC", "PBM E-score": -0.105}
{"sequence": "ACGCGTCC", "PBM E-score": -0.153}
{"sequence": "AGCATTTA", "PBM E-score": 0.0812}
{"sequence": "CGGATCCC", "PBM E-score": -0.153}
{"sequence": "AGACTTGC", "PBM E-score": -0.2}
{"sequence": "ACAATGGC", "PBM E-score": 0.0235}
{"sequence": "GTACTGAA", "PBM E-score": 0.212}
{"sequence": "CTGGCCGA", "PBM E-score": -0.177}
{"sequence": "AAGCCCAC", "PBM E-score": -0.119}
{"sequence": "CTTCGCCA", "PBM E-score": 0.0506}
{"sequence": "ACCGCCAT", "PBM E-score": 0.0869}
{"sequence": "GATTCGCA", "PBM E-score": 0.0922}
{"sequence": "ACCATGCA", "PBM E-score": -0.141}
{"sequence": "CAATCATG", "PBM E-score": 0.0546}
{"sequence": "AGTTCTGG", "PBM E-score": -0.121}
{"sequence": "GCGAGACA", "PBM E-score": -0.185}
{"sequence": "CAATCATC", "PBM E-score": -0.178}
{"sequence": "GACCCGAA", "PBM E-score": -0.251}
{"sequence": "CCTAAGGC", "PBM E-score": -0.101}
{"sequence": "ACGTCCCG", "PBM E-score": -0.153}
{"sequence": "CAAAATCG", "PBM E-score": 0.183}
{"sequence": "GATTACCC", "PBM E-score": 0.0751}
{"sequence": "GATAGGCC", "PBM E-score": -0.259}
{"sequence": "CAACTCCC", "PBM E-score": 0.148}
{"sequence": "AAGTTCAC", "PBM E-score": 0.01}
{"sequence": "CGCTTCGC", "PBM E-score": -0.0121}
{"sequence": "CCGACAAA", "PBM E-score": 0.0507}
{"sequence": "CCGAGAAG", "PBM E-score": -0.194}
{"sequence": "CCTGGCGC", "PBM E-score": 0.0915}
{"sequence": "AGTTCACG", "PBM E-score": -0.0925}
{"sequence": "CCTGTCTA", "PBM E-score": -0.0566}
{"sequence": "CGCAAGTA", "PBM E-score": 0.0487}
{"sequence": "AACCGAAC", "PBM E-score": -0.0587}
{"sequence": "CCGCTCGA", "PBM E-score": 0.191}
{"sequence": "ATAGTGTC", "PBM E-score": -0.00831}
{"sequence": "CGGTGAGC", "PBM E-score": -0.198}
{"sequence": "CCTCGTGA", "PBM E-score": 0.126}
